Several values for one entry are separate records, joined by “and”; a condition that tells them apart may be missing. Equal values may be shown once. Whole data set: some 110,000 compounds, median “z-score” near -0.1, cut for the highest 2% near 2. This is one part of the list. Activity calls are given as the source filed them.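 The calls were made as follows: active = z-score in the third read window above 3 or below -3; inactive = the rest.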
Each molecule was assayed against Metabotropic glutamate receptor 8 (Rattus norvegicus) (UniProt P70579) (assay: mGluR8 Gi/Go-coupled signaling modulation – cell-based, rat, thallium flux, HTS, primary screen (AID 488969)). Conditions: HEK293 rat mGluR8, GIRK (G protein-gated inwardly rectifying potassium channel) thallium flux, FluoZin2; at 10 µM; stronger effect = higher value; submaximal glutamate (EC20) added with thallium.
Chain of UniProt P70579 (P70579 whole entry, looked up): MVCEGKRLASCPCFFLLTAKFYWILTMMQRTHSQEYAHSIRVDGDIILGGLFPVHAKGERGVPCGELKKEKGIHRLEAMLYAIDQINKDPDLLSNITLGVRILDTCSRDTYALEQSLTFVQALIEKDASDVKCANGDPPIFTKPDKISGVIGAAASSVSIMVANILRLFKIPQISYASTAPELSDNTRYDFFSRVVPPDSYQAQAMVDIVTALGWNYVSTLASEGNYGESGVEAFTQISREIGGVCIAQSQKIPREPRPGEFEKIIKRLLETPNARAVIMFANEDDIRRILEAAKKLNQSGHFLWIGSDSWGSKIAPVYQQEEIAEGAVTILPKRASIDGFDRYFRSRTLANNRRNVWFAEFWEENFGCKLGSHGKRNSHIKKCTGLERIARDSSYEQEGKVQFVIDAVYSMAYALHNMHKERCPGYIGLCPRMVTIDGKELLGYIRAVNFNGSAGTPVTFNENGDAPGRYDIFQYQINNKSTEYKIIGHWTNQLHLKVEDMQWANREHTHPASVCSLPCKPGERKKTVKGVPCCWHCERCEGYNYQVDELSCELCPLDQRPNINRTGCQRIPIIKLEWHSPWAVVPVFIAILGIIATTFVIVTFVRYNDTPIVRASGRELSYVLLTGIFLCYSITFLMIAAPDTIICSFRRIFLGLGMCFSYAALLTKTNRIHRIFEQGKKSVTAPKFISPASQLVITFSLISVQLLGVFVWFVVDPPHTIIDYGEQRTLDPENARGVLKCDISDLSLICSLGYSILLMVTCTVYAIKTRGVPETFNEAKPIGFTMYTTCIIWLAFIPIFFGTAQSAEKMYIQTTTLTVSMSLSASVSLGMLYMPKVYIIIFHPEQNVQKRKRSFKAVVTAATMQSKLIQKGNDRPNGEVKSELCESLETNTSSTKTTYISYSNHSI
Work on `Cn1c(SCc2nc(-c3ccccc3)no2)nnc1-c1ccco1` yielded a z-score of -0.441.
`COc1ccccc1N1CCN(C(=O)c2ccc(Cl)c(S(=O)(=O)NCc3ccco3)c2)CC1` gave a z-score of -0.264.
`Cc1cccc2[nH]c3c(N4CCN(C(=O)c5ccco5)CC4)ncnc3c12` showed a z-score of -0.406.
`CC(C)(C)NC(=O)C(c1ccncc1)N(Cc1cccs1)C(=O)Cn1nnc(-c2cccs2)n1` (stereo not drawn) was tested, and the z-score was -0.0939.
In the case of `C/C(CC(=O)Nc1ccc(OCc2ccccc2)cc1)=N\NC(=O)C(=O)Nc1ccccc1C`, the z-score is reported as 0.266.
For `CC(C)(C)NC(=O)CSc1nncn1NCc1c(Cl)cccc1Cl`, the z-score was -0.104.
`CCOC(=O)c1c(NC(=O)c2ccnn2C)sc(C)c1C` gave a z-score of -0.247.
`Nc1ccc(N2CCN(CCCCN3C(=O)C4CCCN4C3=O)CC2)cc1` (stereo not drawn) showed a z-score of -0.207.
`[O-]C1=N/[N+](=C/c2ccc(Cl)c(Cl)c2)CC1` showed a z-score of 0.124.
In the case of `Cc1csc(NC(=O)CCN2C(=O)c3ccccc3S2(=O)=O)n1`, the z-score is reported as -0.105.
`Cc1ccc(Cl)cc1N1CCN(C(c2cccnc2)c2nnnn2C2CCCCC2)CC1` (stereo not drawn) gave a z-score of 0.333.
For `CC(C)Oc1ccc(C(=O)Nc2nnc(SCC(=O)N3CCOCC3)s2)cc1`, the z-score was -0.138.
Work on `CN1C(=O)CSc2ccc(C(=O)O)cc21` yielded a z-score of 0.419.
Molecule `CCC(C)c1ccccc1NC(=O)COC(=O)c1ccc(C)c(NC(=O)c2ccco2)c1` (stereo not drawn) has a z-score of -0.223.
Molecule `C/C(=N\Nc1ccc([N+](=O)[O-])cc1)c1ccc(N)cc1` has a z-score of 0.518.
`CC(C)c1ccc(/C=N/NC(=O)c2nnn(-c3nonc3N)c2CSC2=NCCS2)cc1` was tested, and the z-score was -0.289.
`COCCCN(C(=S)Nc1cccc(Cl)c1)C(C)c1ccncc1` (stereo not drawn) gave a z-score of -2.09.
With `O=C(CN1CCN(Cc2ccccc2)CC1)Nc1ccc(S(=O)(=O)N2CCOCC2)cc1` the z-score was -0.231.
`CCCC(=O)N1c2ccccc2[C@@H](N(C(C)=O)c2ccccc2)C[C@H]1C` showed a z-score of -0.554.
Molecule `COc1cc2c(=O)n(Cc3ccccc3)c(=O)n(CC(=O)NCc3ccco3)c2cc1OC` has a z-score of 0.453.
`Brc1ccc(NCc2cccc3ccccc23)nc1` gave a z-score of -0.475.
`CCc1nc(N[C@H](C(=O)O)C(C)CC)c2oc3ccccc3c2n1` (stereo partly drawn) was tested, and the z-score was -0.708.
In the case of `Cn1ncc2c(Nc3ccc4ccccc4c3)ncnc21`, the z-score is reported as -0.0116.
Molecule `CCCc1nc2ccccc2c(C(=O)OCC(=O)Nc2ccc(S(=O)(=O)N3CCOCC3)cc2)c1CC` has a z-score of -1.19.
`FC(F)(F)C1=CC(c2ccccc2)=NCCN1` gave a z-score of -0.25.
With `CN1CCN(c2ccc([N+](=O)[O-])cc2NC(=O)c2ccccc2)CC1` the z-score was -0.374.
`O=C(CN1C(=O)c2ccccc2C1=O)N1CCN(c2ccccn2)CC1` was tested, and the z-score was -0.293.
`COCCn1c(C23CC4CC(CC(C4)C2)C3)n[nH]c1=S` was tested, and the z-score was 0.00477.
`CC(=O)Nc1ccc(N2CCCC2)cc1` showed a z-score of 0.743.
In the case of `COc1ccccc1N1C(C)=CC(=C(C#N)c2nc3ccccc3s2)C=C1C`, the z-score is reported as 0.0828.
`c1ccc(Nc2nc(-c3cccs3)cs2)nc1` showed a z-score of -0.142.
Molecule `O=C(NC1CCCC1)c1ccc(S(=O)(=O)N2CCOCC2)cc1` has a z-score of -0.0766.
`CC(=O)N(c1ccc2oc(=O)sc2c1)S(=O)(=O)c1ccccc1` gave a z-score of -0.932.
With `CC(NC(=O)Cc1ccccc1[N+](=O)[O-])c1ccccc1` (stereo not drawn) the z-score was -0.261.
`COc1ccc(/C=N/NC(=O)c2nn(-c3ccccc3)c(=O)c3c(N)scc23)cc1` showed a z-score of -0.303.
Work on `COc1ccccc1NS(=O)(=O)c1cccc(C(=O)N/N=C/c2ccc(N3CCOCC3)cc2)c1` yielded a z-score of 0.115.
In the case of `O=C(COc1ccccc1)NCc1nnc2c3ccccc3c(-c3ccccc3)nn12`, the z-score is reported as -0.698.
Work on `Cc1nc(N)[nH]c(=O)c1CCC(=O)OCC(C)C` yielded a z-score of 0.18.
`CC1=CC(C)(C)Nc2ccccc21` gave a z-score of -0.0658.
With `COc1ccc(C(=O)Cn2nnc(-c3cccs3)n2)cc1` the z-score was -0.191.
`COCCN1C(=O)c2oc3ccccc3c(=O)c2C1c1cccc(O)c1` (stereo not drawn) was tested, and the z-score was 0.0384.
Molecule `Cn1cnnc1SCC(=O)Nc1cccc(S(=O)(=O)N2CCCCCC2)c1` has a z-score of -0.218.
For `COC(=O)c1ccc(C)c(-n2c(C)cc(C=O)c2C)c1`, the z-score was 0.134.
`COc1ccc2c(c1)-c1c(ssc1=S)C(C)(C)N2C(=O)CSC1=NCCS1` gave a z-score of -0.346.
Work on `CCOc1ccc(NC(=O)c2ccco2)c([N+](=O)[O-])c1` yielded a z-score of 0.00803.
With `C=CCN(CC=C)c1cnn(-c2nc3ccccc3[nH]2)c(=O)c1Cl` the z-score was -0.513.
In the case of `Cc1ccc(-c2nn3c(C)nnc3s2)cc1NC(=O)c1ccc(Br)o1`, the z-score is reported as 0.573.
Work on `O=C1/C(=C\c2ccncc2)SC(=S)N1C1CCCCC1` yielded a z-score of -0.405.
For `CCc1ccccc1SCc1noc(C(=O)NCC2CCCO2)c1C(=O)O` (stereo not drawn), the z-score was -0.201.
`O=C(NCCc1ccccc1)c1noc2c1CCCCC2` gave a z-score of 0.00432.
Molecule `C=CCn1c(=O)/c(=C/c2ccc(C)o2)s/c1=C(/C#N)C(=O)c1ccccc1` has a z-score of 0.324.
With `CC(C)(C)c1ccc(NC(=O)COC(=O)c2ccc([N+](=O)[O-])s2)cc1` the z-score was 2.01.
In the case of `COc1ccc2c(CC(=O)OCC(=O)Nc3ccccc3[N+](=O)[O-])coc2c1`, the z-score is reported as -0.0851.
With `CCOC(=O)c1cc2sccc2n1CC(=O)O` the z-score was 0.32.
Work on `Cn1c(=O)oc2cc(S(=O)(=O)NCCN3CCCCCC3)ccc21` yielded a z-score of -0.0401.
For `Cc1cc(C(=O)Nc2cccc(/C=C/C(=O)O)c2)c(C)o1`, the z-score was -0.27.
`CCCCN1C(=O)/C(=C2/C=CC=CN2C)SC1=S` was tested, and the z-score was 1.05.
Molecule `CCOc1ccc(CN=C(N)N=C(N)N)cc1Cl` has a z-score of -0.0998.
`Cn1c(NC(=O)c2ccccc2)cc(=O)n(C)c1=O` showed a z-score of -0.106.
Work on `CCOc1ccccc1/C=N/NC(=O)c1ccc(Cn2cc([N+](=O)[O-])cn2)o1` yielded a z-score of -0.791.
`Cn1ncc([N+](=O)[O-])c1C(=O)Nc1ccc(-c2nc3ccccc3[nH]2)cc1` showed a z-score of -0.199.
`O=C1C2C3C=CC(C4CC34)C2C(=O)N1/N=C/c1cccs1` (stereo not drawn) gave a z-score of 0.0622.
`N#Cc1ccc(COC(=O)CSc2nnc(N)s2)cc1` gave a z-score of -0.312.
For `Cn1c(=O)c2c(-c3ccccc3)n(-n3cnnc3)cc2n(C)c1=O`, the z-score was 1.23.
`COc1ccc(CNC(=O)C2CCC(CNc3c(N4CCOCC4)c(=O)c3=O)CC2)cc1` (stereo not drawn) was tested, and the z-score was -0.657.
Molecule `CCC(=O)Nc1c(C(=O)N2CCCCCC2)cnn1-c1ccc(C)c(C)c1` has a z-score of 2.47.
Work on `O=S(=O)(c1ccc(SCCO)nc1)N1CCCC1` yielded a z-score of 0.323.
`CN(C)CCNc1oc(COc2ccc(Cl)cc2Cl)nc1C#N` gave a z-score of -0.0733.
Molecule `CC1S/C(=C(\C#N)C(N)=O)N(c2ccc(F)cc2)C1=O` (stereo not drawn) has a z-score of 0.0104.
Molecule `c1ccc(C2(c3ccccc3)OCC(Cn3cncn3)O2)cc1` (stereo not drawn) has a z-score of 0.218.
`CN(CCCNC(=O)c1cccn2c(=O)c3ccccc3nc12)Cc1ccccc1` gave a z-score of -0.212.
For `C=CCn1c(C)cc(C(=O)CN2C(=O)NC3(CCCc4ccccc43)C2=O)c1C` (stereo not drawn), the z-score was 0.483.
In the case of `CCCCNC(=O)CN(c1cc(C(F)(F)F)ccc1Cl)S(C)(=O)=O`, the z-score is reported as -0.33.
`O=C(CSCc1cccc(Cl)c1)NCc1ccc2c(c1)OCO2` was tested, and the z-score was -0.0208.
In the case of `CCOc1ccc2nc(NC(=O)CCC(=O)c3cccs3)sc2c1`, the z-score is reported as 0.357.
With `Cc1ccc(-n2ncc3c(=O)n(Cc4ccccn4)cnc32)cc1C` the z-score was -0.336.
`CN(CCOc1ccc(-c2ccn(S(=O)(=O)c3ccc(Cl)cc3)n2)cc1)c1ccccn1` was tested, and the z-score was 0.363.
Molecule `O=C(CP(=O)(c1ccccc1)c1ccccc1)N1CCCCC1` has a z-score of -0.254.
For `COc1ccc(OC)c(S(=O)(=O)N2CCC(C(=O)Nc3cccc(C)c3)CC2)c1`, the z-score was -0.141.
For `CN(C)c1ccc(C(c2nnnn2C2CCCCC2)N2CCN(C(=O)c3ccco3)CC2)cc1` (stereo not drawn), the z-score was 0.885.
`O=C(O)C(CCCCN1C(=O)c2ccccc2C1=O)N1C(=O)c2ccccc2C1=O` (stereo not drawn) showed a z-score of 0.0681.
`COC(CNc1cc(=O)oc2ccccc12)OC` was tested, and the z-score was 0.158.
`CCN(CC)c1cc(Oc2ccccc2)ncn1` was tested, and the z-score was -0.146.
Work on `Cc1cccc(N2CCN(C(=O)CC(NC(=O)c3ccccc3)c3ccccc3)CC2C)c1` (stereo not drawn) yielded a z-score of -0.215.
In the case of `CC(/C=C\c1cccnc1)=C/C(=O)O`, the z-score is reported as -0.175 and active: 6.26.
With `CC(C)N1C2OC(C3OC4C(O3)N(C(C)C)S(=O)(=O)N4C(C)C)OC2N(C(C)C)S1(=O)=O` (stereo not drawn) the z-score was -0.13.
Molecule `CN1Cc2cccc3c2C(Cc2ccccc2S3)C1` (stereo not drawn) has a z-score of -0.0777.
`O=C(Cn1c(CO)nc2ccccc21)Nc1cc(C(F)(F)F)ccc1N1CCOCC1` was tested, and the z-score was -0.215.
Molecule `Cc1cc(NC(=O)/C=C/c2ccccc2Cl)n(-c2nc3ccccc3[nH]2)n1` has a z-score of 0.0437.
`NC1=NC(c2cccc(O)c2)n2c(nc3ccccc32)N1` (stereo not drawn) was tested, and the z-score was -0.0067.
Work on `Cc1cc(Cl)ccc1Oc1nc(-c2ccccc2)ncc1S(C)(=O)=O` yielded a z-score of -0.305.
`CCOC(=O)N1CCN(c2c(N3CCN(c4ccc(OC)cc4)CC3)c(=O)c2=O)CC1` showed a z-score of -0.279.
For `COc1ccccc1N(CC(=O)Nc1ccc2c(c1)OCO2)S(=O)(=O)c1ccccc1`, the z-score was -0.821.
`CC12CCC(C(=O)N3CCCc4ccccc43)(CC1=O)C2(C)C` (stereo not drawn) was tested, and the z-score was active: 3.5.
Molecule `COc1cc(-c2ccccc2)nc(N)n1` has a z-score of 0.855.
In the case of `O=C(CN1CC[n+]2c(-c3cccs3)csc21)c1ccc(Br)cc1`, the z-score is reported as 0.365.
With `CN(C)S(=O)(=O)c1ccc(Cl)c(C(=O)OCC(=O)NC(=O)c2cccn2C)c1` the z-score was -0.34.
`CCOc1cc(NC(=S)Nc2ccccc2)c(OCC)cc1NC(=O)c1ccccc1` was tested, and the z-score was -0.0523.
With `CC(C)(C)n1nnnc1C(c1cccs1)N1CCCc2ccccc21` (stereo not drawn) the z-score was -0.607.
With `CN1C(=O)c2ccccc2C(C(=O)NCCCN2CCCC2)C1c1c[nH]c2ccccc12` (stereo not drawn) the z-score was 0.231.
Molecule `COc1cc(-n2c(C)nc3cc(C(=O)NCc4ccco4)ccc32)cc(OC)c1OC` has a z-score of 1.11.
`COc1ccc(-n2nnnc2-c2cn(C)nc2C(F)(F)F)cc1` was tested, and the z-score was -0.0899.
Molecule `COc1ccc(C(=O)Nc2ccc3oc(-c4cccc(F)c4)nc3c2)cc1OC` has a z-score of 0.0486.
Molecule `O=C(c1ccccc1)c1sc(N2CCCCCC2)nc1-c1ccccc1` has a z-score of -0.175.
In the case of `CC1(C)C(=O)Nc2ccccc2N1C(=O)COC(=O)C12CC3CC(CC(O)(C3)C1)C2`, the z-score is reported as -0.0676.
In the case of `Cc1ccc(OC(=O)N2CCOCC2)cc1`, the z-score is reported as 0.226.
Molecule `CCOC(=O)N1CCN(CC(=O)n2c(C)c(C)c3ccccc32)CC1` has a z-score of 1.1.
Work on `COC(=O)[C@H](CCSC)NC(=O)N1CCN(c2cccc(C(F)(F)F)c2)CC1` yielded a z-score of -1.13.

From PubChem BioAssay AID488969 (Vanderbilt High Throughput Screening Facility, 2010)
